Measurements reported in the supplement of paper PMC8728848.
The other results are listed elsewhere or left out.

Columns and labels:
Assay in all cases: glycan array binding signal (z-score within array); higher = stronger binding
Settings in all cases: glycan notation: IUPAC condensed, linker removed
[1] = biological target: Fuc(a1-2)Gal(b1-4)GlcNAc(b1-3)Gal(b1-4)GlcNAc(b1-3)Gal(b1-4)GlcNAc
How it was run: (§1)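 Arrays were curated from the Consortium for Functional Glycomics database, 3228 in total, and kept only where the protein sequence was available. Binding is expressed as a within-array Z-score. This score was averaged across arrays of the same protein sequence at different concentrations or buffers and across linkers, and negative values can be read as non-binding.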

[2] = biological target: Fuc(a1-2)Gal(b1-4)GlcNAc(b1-3)GalNAc
How it was run: as §1

[3] = biological target: Fuc(a1-2)Gal(b1-4)GlcNAc(b1-3)[Fuc(a1-2)Gal(b1-4)GlcNAc(b1-6)]GalNAc
How it was run: as §1

[4] = biological target: Fuc(a1-2)Gal(b1-4)GlcNAc(b1-3)[Fuc(a1-3)[Gal(b1-4)]GlcNAc(b1-6)]Gal(b1-4)Glc
How it was run: as §1

[5] = biological target: Fuc(a1-2)Gal(b1-4)GlcNAc(b1-6)GalNAc
How it was run: as §1

[6] = biological target: Fuc(a1-2)Gal(b1-4)GlcNAc6S
How it was run: as §1

[7] = biological target: Fuc(a1-2)Gal(b1-4)[Fuc(a1-3)]GlcNAc
How it was run: as §1

[8] = biological target: Fuc(a1-2)Gal(b1-4)[Fuc(a1-3)]GlcNAc(b1-2)Man(a1-3)[Fuc(a1-2)Gal(b1-4)[Fuc(a1-3)]GlcNAc(b1-2)Man(a1-6)]Man(b1-4)GlcNAc(b1-4)[Fuc(a1-6)]GlcNAc
How it was run: as §1

[9] = biological target: Fuc(a1-2)Gal(b1-4)[Fuc(a1-3)]GlcNAc(b1-2)[Fuc(a1-2)Gal(b1-4)[Fuc(a1-3)]GlcNAc(b1-4)]Man(a1-3)[Fuc(a1-2)Gal(b1-4)[Fuc(a1-3)]GlcNAc(b1-2)Man(a1-6)]Man(b1-4)GlcNAc(b1-4)GlcNAc
How it was run: as §1

[10] = biological target: Fuc(a1-2)Gal(b1-4)[Fuc(a1-3)]GlcNAc(b1-3)Gal(b1-4)[Fuc(a1-3)]GlcNAc
How it was run: as §1

[11] = biological target: Fuc(a1-2)Gal(b1-4)[Fuc(a1-3)]GlcNAc(b1-3)Gal(b1-4)[Fuc(a1-3)]GlcNAc(b1-3)Gal(b1-4)[Fuc(a1-3)]GlcNAc
How it was run: as §1

[12] = biological target: Fuc(a1-2)Gal(b1-4)[Fuc(a1-3)]GlcNAc(b1-3)GalNAc
How it was run: as §1

[13] = biological target: Fuc(a1-2)Gal(b1-4)[Fuc(a1-3)]GlcNAc(b1-3)[Neu5Ac(a2-6)Gal(b1-4)GlcNAc(b1-6)]Gal(b1-4)Glc
How it was run: as §1

[14] = biological target: Fuc(a1-2)Gal3S(b1-4)GlcNAc
How it was run: as §1

[15] = biological target: Fuc(a1-2)Gal6S(b1-3)GlcNAc
How it was run: as §1

[16] = biological target: Fuc(a1-2)Gal6S(b1-3)GlcNAc6S
How it was run: as §1

[17] = biological target: Fuc(a1-2)Gal6S(b1-4)Glc
How it was run: as §1

[18] = biological target: Fuc(a1-2)Gal6S(b1-4)Glc6S
How it was run: as §1

[19] = biological target: Fuc(a1-2)[Gal(a1-3)]Gal
How it was run: as §1

[20] = biological target: Fuc(a1-2)[Gal(a1-3)]Gal(b1-3)GalNAc
How it was run: as §1

[21] = biological target: Fuc(a1-2)[Gal(a1-3)]Gal(b1-3)GalNAc(b1-3)Gal(a1-4)Gal(b1-4)Glc
How it was run: as §1

[22] = biological target: Fuc(a1-2)[Gal(a1-3)]Gal(b1-3)GlcNAc
How it was run: as §1

[23] = biological target: Fuc(a1-2)[Gal(a1-3)]Gal(b1-3)GlcNAc(b1-2)Man(a1-3)[Fuc(a1-2)[Gal(a1-3)]Gal(b1-3)GlcNAc(b1-2)Man(a1-6)]Man(b1-4)GlcNAc(b1-4)GlcNAc
How it was run: as §1

[24] = biological target: Fuc(a1-2)[Gal(a1-3)]Gal(b1-3)GlcNAc(b1-2)Man(a1-3)[Fuc(a1-2)[Gal(a1-3)]Gal(b1-3)GlcNAc(b1-2)Man(a1-6)]Man(b1-4)GlcNAc(b1-4)[Fuc(a1-6)]GlcNAc
How it was run: as §1

[25] = biological target: Fuc(a1-2)[Gal(a1-3)]Gal(b1-3)GlcNAc(b1-3)GalNAc
How it was run: as §1

[26] = biological target: Fuc(a1-2)[Gal(a1-3)]Gal(b1-3)GlcNAc(b1-6)GalNAc
How it was run: as §1

[27] = biological target: Fuc(a1-2)[Gal(a1-3)]Gal(b1-4)Glc
How it was run: as §1

[28] = biological target: Fuc(a1-2)[Gal(a1-3)]Gal(b1-4)GlcNAc
How it was run: as §1

[29] = biological target: Fuc(a1-2)[Gal(a1-3)]Gal(b1-4)GlcNAc(b1-2)Man
How it was run: as §1

[30] = biological target: Fuc(a1-2)[Gal(a1-3)]Gal(b1-4)GlcNAc(b1-2)Man(a1-3)[Fuc(a1-2)[Gal(a1-3)]Gal(b1-4)GlcNAc(b1-2)Man(a1-6)]Man(b1-4)GlcNAc(b1-4)GlcNAc
How it was run: as §1

[31] = biological target: Fuc(a1-2)[Gal(a1-3)]Gal(b1-4)GlcNAc(b1-2)Man(a1-3)[Fuc(a1-2)[Gal(a1-3)]Gal(b1-4)GlcNAc(b1-2)Man(a1-6)]Man(b1-4)GlcNAc(b1-4)[Fuc(a1-6)]GlcNAc
How it was run: as §1

[32] = biological target: Fuc(a1-2)[Gal(a1-3)]Gal(b1-4)GlcNAc(b1-3)GalNAc
How it was run: as §1

[33] = biological target: Fuc(a1-2)[Gal(a1-3)]Gal(b1-4)GlcNAc(b1-3)[Fuc(a1-2)[Gal(a1-3)]Gal(b1-4)GlcNAc(b1-6)]GalNAc
How it was run: as §1

[34] = biological target: Fuc(a1-2)[Gal(a1-3)]Gal(b1-4)GlcNAc(b1-6)GalNAc
How it was run: as §1

[35] = biological target: Fuc(a1-2)[Gal(a1-3)]Gal(b1-4)[Fuc(a1-3)]Glc
How it was run: as §1

[36] = biological target: Fuc(a1-2)[Gal(a1-3)]Gal(b1-4)[Fuc(a1-3)]GlcNAc
How it was run: as §1

[37] = biological target: Fuc(a1-2)[Gal(a1-3)]Gal(b1-4)[Fuc(a1-3)]GlcNAc(b1-3)GalNAc
How it was run: as §1

[38] = biological target: Fuc(a1-2)[Gal(a1-4)]Gal(b1-4)GlcNAc
How it was run: as §1

[39] = biological target: Fuc(a1-2)[GalNAc(a1-3)]Gal
How it was run: as §1

[40] = biological target: Fuc(a1-2)[GalNAc(a1-3)]Gal(b1-3)GalNAc(a1-3)[Fuc(a1-2)]Gal(b1-4)GlcNAc
How it was run: as §1

[41] = biological target: Fuc(a1-2)[GalNAc(a1-3)]Gal(b1-3)GalNAc(b1-3)Gal(a1-4)Gal(b1-4)Glc
How it was run: as §1

[42] = biological target: Fuc(a1-2)[GalNAc(a1-3)]Gal(b1-3)GlcNAc
How it was run: as §1

[43] = biological target: Fuc(a1-2)[GalNAc(a1-3)]Gal(b1-3)GlcNAc(b1-2)Man(a1-3)[Fuc(a1-2)[GalNAc(a1-3)]Gal(b1-3)GlcNAc(b1-2)Man(a1-6)]Man(b1-4)GlcNAc(b1-4)GlcNAc
How it was run: as §1

[44] = biological target: Fuc(a1-2)[GalNAc(a1-3)]Gal(b1-3)GlcNAc(b1-2)Man(a1-3)[Fuc(a1-2)[GalNAc(a1-3)]Gal(b1-3)GlcNAc(b1-2)Man(a1-6)]Man(b1-4)GlcNAc(b1-4)[Fuc(a1-6)]GlcNAc
How it was run: as §1

[45] = biological target: Fuc(a1-2)[GalNAc(a1-3)]Gal(b1-3)GlcNAc(b1-3)GalNAc
How it was run: as §1

B1: Cohesin-marm-DC-ASGPR (protein)
chain: LDITSHHHHHHDDLDAVRIKVDTVNAKPGDTVRIPVRFSGIPSKGIANCDFVYSYDPNVLEIIEIEPGDIIVDPNPDKSFDTAVYPDRKIIVFLFAEDSGTGAYAITKDGVFATIVAKVKEGAPNGLSVIKFVEVGGFANNDLVEQKTQFFDGGVNVGDTTEPATPTTPVTTPTTTDDLDAASSKFQRDLVTLRTDFSNFTSNTLAEIQALTSQGSSLQETIASLKAEVEGHKQELQAGASELQEHNKQKAHLGRCPHTCVCPSSFVCVPVHSEILLRVQQLVQDLNKLSCQVAILKNNATTERTCCPINWVEHQGSCYWFSRSGKTWPEAERYCQLENTHLVVINSREEQNFVQAHLGSAYTWMGLSDPEGVWKWVDGTDYSSGFQNWKPGQPDDWQGHGLGGGEDCAHFHPDGRWNDDVCQRSYHWVCEAGLTQASQDSHAS
glycan array binding signal (z-score) [1]: -0.306 | glycan array binding signal (z-score) [2]: -0.301 | glycan array binding signal (z-score) [3]: -0.236 | glycan array binding signal (z-score) [4]: -0.313 | glycan array binding signal (z-score) [5]: 4.84 | glycan array binding signal (z-score) [6]: -0.303 | glycan array binding signal (z-score) [7]: -0.289 | glycan array binding signal (z-score) [8]: -0.298 | glycan array binding signal (z-score) [9]: -0.297 | glycan array binding signal (z-score) [10]: -0.308 | glycan array binding signal (z-score) [11]: -0.299 | glycan array binding signal (z-score) [12]: -0.263 | glycan array binding signal (z-score) [13]: -0.298 | glycan array binding signal (z-score) [14]: -0.307 | glycan array binding signal (z-score) [15]: -0.302 | glycan array binding signal (z-score) [16]: -0.143 | glycan array binding signal (z-score) [17]: -0.285 | glycan array binding signal (z-score) [18]: -0.277 | glycan array binding signal (z-score) [19]: -0.3 | glycan array binding signal (z-score) [20]: -0.303 | glycan array binding signal (z-score) [21]: -0.308 | glycan array binding signal (z-score) [22]: 0.045 | glycan array binding signal (z-score) [23]: -0.292 | glycan array binding signal (z-score) [24]: -0.292 | glycan array binding signal (z-score) [25]: -0.293 | glycan array binding signal (z-score) [26]: 4.11 | glycan array binding signal (z-score) [27]: -0.168 | glycan array binding signal (z-score) [28]: -0.282 | glycan array binding signal (z-score) [29]: -0.239 | glycan array binding signal (z-score) [30]: -0.283 | glycan array binding signal (z-score) [31]: -0.238 | glycan array binding signal (z-score) [32]: -0.309 | glycan array binding signal (z-score) [33]: -0.22 | glycan array binding signal (z-score) [34]: -0.204 | glycan array binding signal (z-score) [35]: -0.294 | glycan array binding signal (z-score) [36]: -0.288 | glycan array binding signal (z-score) [37]: -0.311 | glycan array binding signal (z-score) [38]: -0.299 | glycan array binding signal (z-score) [39]: -0.083 | glycan array binding signal (z-score) [40]: -0.272 | glycan array binding signal (z-score) [41]: -0.252 | glycan array binding signal (z-score) [42]: -0.141 | glycan array binding signal (z-score) [43]: -0.176 | glycan array binding signal (z-score) [44]: -0.291 | glycan array binding signal (z-score) [45]: -0.221
